{"source": "patent US20040053370A1", "about": "(Eli Lilly, published 2004)", "data": [{"target": "GLP-1 receptor", "assay": "cell-based or functional assay", "values": [{"binder": "Val^8-Glu^22-GLP-1-CEx-IgG1 (Fc fusion) HVEGTFTSDVSSYLEEQAAKEFIAWLVKGRGSSGAPPPSA[omitted - human IgG1 Fc]", "In Vitro Activity (% of Val^8-GLP-1)": "29 % of Val^8-GLP-1"}, {"binder": "Gly^8-Glu^22-GLP-1-CEx-Linker-IgG1 (Fc fusion) HGEGTFTSDVSSYLEEQAAKEFIAWLVKGRGSSGAPPPSGGGGSGGGGSGGGGSA[omitted - human IgG1 Fc]", "In Vitro Activity (% of Val^8-GLP-1)": "150 % of Val^8-GLP-1"}, {"binder": "Gly^8-Glu^22-GLP-1-CEx-Linker-IgG4 (Fc fusion) HGEGTFTSDVSSYLEEQAAKEFIAWLVKGRGSSGAPPPSGGGGSGGGGSGGGGSA[omitted - human IgG4 Fc]", "In Vitro Activity (% of Val^8-GLP-1)": "80 % of Val^8-GLP-1"}, {"binder": "Val^8-GLP-1-CEx-IgG1 (Fc fusion) HVEGTFTSDVSSYLEGQAAKEFIAWLVKGRGSSGAPPPSA[omitted - human IgG1 Fc]", "In Vitro Activity (% of Val^8-GLP-1)": "3.3 % of Val^8-GLP-1"}]}]}
